Test results published in the CheMixHub viscosity set.
“And” between values parts separate entries of the source, which are not always exact repeats. Equal values may be shown once. ± gives the uncertainty stated by the source. Further values from the same series stand in other lists.

Test: xn = mol fraction of the nth substance listed

CCO + O
Conditions | viscosity
293.15 K, 100 kPa, x1 = 0.0376 | 1.412 ± 0.041 mPa·s
293.15 K, 100 kPa, x1 = 0.0725 | 1.854 ± 0.041 mPa·s
293.15 K, 100 kPa, x1 = 0.1152 | 2.348 ± 0.042 mPa·s
293.15 K, 100 kPa, x1 = 0.163 | 2.655 ± 0.043 mPa·s
293.15 K, 101 kPa, x1 = 0.042 | 1.602 ± 0.1 mPa·s
293.15 K, 101 kPa, x1 = 0.09 | 2.113 ± 0.022 mPa·s
293.15 K, 101 kPa, x1 = 0.1 | 2.71 ± 0.03 mPa·s
293.15 K, 101 kPa, x1 = 0.14 | 2.592 ± 0.16 mPa·s
293.15 K, 101 kPa, x1 = 0.25 | 2.98 ± 0.19 mPa·s
293.15 K, 101 kPa, x1 = 0.28 | 2.915 ± 0.18 mPa·s
293.15 K, 101 kPa, x1 = 0.37 | 2.67 ± 0.03 mPa·s and 2.669 ± 0.17 mPa·s
293.15 K, 101 kPa, x1 = 0.48 | 2.37 ± 0.029 mPa·s and 2.497 ± 0.16 mPa·s
293.15 K, 101 kPa, x1 = 0.61 | 2.008 ± 0.025 mPa·s and 2.092 ± 0.13 mPa·s
293.15 K, 101.33 kPa, x1 = 0.089 | 1.724 ± 0.043 mPa·s
293.15 K, 101.33 kPa, x1 = 0.09267 | 2.162 ± 0.016 mPa·s
293.15 K, 101.33 kPa, x1 = 0.14 | 2.131 ± 0.054 mPa·s
293.15 K, 101.33 kPa, x1 = 0.21 | 2.742 ± 0.069 mPa·s
293.15 K, 101.33 kPa, x1 = 0.2466 | 2.797 ± 0.022 mPa·s
293.15 K, 101.33 kPa, x1 = 0.28 | 2.998 ± 0.075 mPa·s
293.15 K, 101.33 kPa, x1 = 0.388 | 2.51 ± 0.019 mPa·s
293.15 K, 101.33 kPa, x1 = 0.9798 | 1.241 ± 0.01 mPa·s
293.16 K, 101.3 kPa, x1 = 0.61 | 2.008 ± 0.052 mPa·s
293.18 K, 101.33 kPa, x1 = 0.0332 | 1.398 ± 0.0002 mPa·s
293.18 K, 101.33 kPa, x1 = 0.0714 | 1.906 ± 0.0002 mPa·s
293.18 K, 101.33 kPa, x1 = 0.1167 | 2.423 ± 0.0002 mPa·s
293.18 K, 101.33 kPa, x1 = 0.171 | 2.744 ± 0.0002 mPa·s
293.18 K, 101.33 kPa, x1 = 0.2365 | 2.832 ± 0.0002 mPa·s
293.18 K, 101.33 kPa, x1 = 0.3173 | 2.726 ± 0.0002 mPa·s
293.18 K, 101.33 kPa, x1 = 0.4194 | 2.469 ± 0.0002 mPa·s
293.18 K, 101.33 kPa, x1 = 0.5537 | 2.104 ± 0.0002 mPa·s
293.18 K, 101.33 kPa, x1 = 0.7355 | 1.698 ± 0.0002 mPa·s
298 K, 101.33 kPa, x1 = 0.1 | 1.973 ± 0.036 mPa·s
298 K, 101.33 kPa, x1 = 0.3 | 2.467 ± 0.046 mPa·s
298 K, 101.33 kPa, x1 = 0.4 | 2.25 ± 0.041 mPa·s
298 K, 101.33 kPa, x1 = 0.5 | 2.025 ± 0.036 mPa·s
298 K, 101.33 kPa, x1 = 0.6 | 1.823 ± 0.032 mPa·s
298 K, 101.33 kPa, x1 = 0.8 | 1.438 ± 0.024 mPa·s
298.15 K, 100 kPa, x1 = 0.116 | 2.008 ± 0.12 mPa·s
298.15 K, 100 kPa, x1 = 0.235 | 2.536 ± 0.16 mPa·s
298.15 K, 101 kPa, x1 = 0.02 | 1.065 ± 0.028 mPa·s
298.15 K, 101 kPa, x1 = 0.04 | 1.323 ± 0.013 mPa·s
298.15 K, 101 kPa, x1 = 0.06399 | 1.708 ± 0.015 mPa·s
298.15 K, 101 kPa, x1 = 0.09 | 1.815 ± 0.019 mPa·s
298.15 K, 101 kPa, x1 = 0.1 | 2.18 ± 0.02 mPa·s and 1.824 ± 0.048 mPa·s
298.15 K, 101 kPa, x1 = 0.14 | 2.13 ± 0.02 mPa·s
298.15 K, 101 kPa, x1 = 0.1435 | 2.113 ± 0.055 mPa·s
298.15 K, 101 kPa, x1 = 0.1605 | 2.506 ± 0.022 mPa·s
298.15 K, 101 kPa, x1 = 0.1739 | 2.561 ± 0.023 mPa·s
298.15 K, 101 kPa, x1 = 0.2092 | 2.617 ± 0.024 mPa·s
298.15 K, 101 kPa, x1 = 0.2431 | 2.637 ± 0.024 mPa·s
298.15 K, 101 kPa, x1 = 0.2688 | 2.624 ± 0.024 mPa·s
298.15 K, 101 kPa, x1 = 0.28 | 2.4 ± 0.03 mPa·s and 2.33 ± 0.02 mPa·s
298.15 K, 101 kPa, x1 = 0.3195 | 2.552 ± 0.024 mPa·s
298.15 K, 101 kPa, x1 = 0.3567 | 2.478 ± 0.023 mPa·s
298.15 K, 101 kPa, x1 = 0.48 | 2.037 ± 0.024 mPa·s and 2.04 ± 0.02 mPa·s
298.15 K, 101 kPa, x1 = 0.6026 | 2.233 ± 0.021 mPa·s
298.15 K, 101 kPa, x1 = 0.61 | 1.72 ± 0.02 mPa·s
298.15 K, 101 kPa, x1 = 0.8 | 1.424 ± 0.018 mPa·s
298.15 K, 101 kPa, x1 = 0.9584 | 1.275 ± 0.012 mPa·s
298.15 K, 101.33 kPa, x1 = 0.0408 | 1.286 ± 0.013 mPa·s
298.15 K, 101.33 kPa, x1 = 0.0807 | 1.697 ± 0.017 mPa·s
298.15 K, 101.33 kPa, x1 = 0.09267 | 1.829 ± 0.015 mPa·s
298.15 K, 101.33 kPa, x1 = 0.1424 | 2.152 ± 0.022 mPa·s
298.15 K, 101.33 kPa, x1 = 0.1961 | 2.317 ± 0.023 mPa·s
298.15 K, 101.33 kPa, x1 = 0.2826 | 2.322 ± 0.023 mPa·s
298.15 K, 101.33 kPa, x1 = 0.4795 | 1.969 ± 0.02 mPa·s
298.15 K, 101.33 kPa, x1 = 0.6136 | 1.694 ± 0.017 mPa·s
298.15 K, 101.33 kPa, x1 = 0.7764 | 1.42 ± 0.014 mPa·s
298.15 K, 101.33 kPa, x1 = 0.9798 | 1.115 ± 0.0091 mPa·s
298.16 K, 101.33 kPa, x1 = 0.0332 | 1.214 ± 0.0002 mPa·s
298.16 K, 101.33 kPa, x1 = 0.0714 | 1.617 ± 0.0002 mPa·s
298.16 K, 101.33 kPa, x1 = 0.1167 | 2.015 ± 0.0002 mPa·s
298.16 K, 101.33 kPa, x1 = 0.171 | 2.271 ± 0.0002 mPa·s
298.16 K, 101.33 kPa, x1 = 0.4194 | 2.114 ± 0.0002 mPa·s
298.16 K, 101.33 kPa, x1 = 0.5537 | 1.833 ± 0.0002 mPa·s
303.15 K, 100 kPa, x1 = 0.0725 | 1.336 ± 0.041 mPa·s
303.15 K, 100 kPa, x1 = 0.1152 | 1.647 ± 0.041 mPa·s
303.15 K, 101 kPa, x1 = 0.042 | 1.263 ± 0.082 mPa·s
303.15 K, 101 kPa, x1 = 0.08887 | 1.538 ± 0.015 mPa·s
303.15 K, 101 kPa, x1 = 0.089 | 1.687 ± 0.11 mPa·s
303.15 K, 101 kPa, x1 = 0.21 | 2.161 ± 0.14 mPa·s
303.15 K, 101 kPa, x1 = 0.25 | 2.227 ± 0.14 mPa·s
303.15 K, 101 kPa, x1 = 0.28 | 2.133 ± 0.14 mPa·s
303.15 K, 101 kPa, x1 = 0.3676 | 1.903 ± 0.018 mPa·s
303.15 K, 101 kPa, x1 = 0.4785 | 1.744 ± 0.016 mPa·s
303.15 K, 101 kPa, x1 = 0.48 | 1.767 ± 0.021 mPa·s
303.15 K, 101 kPa, x1 = 0.4821 | 1.739 ± 0.019 mPa·s
303.15 K, 101 kPa, x1 = 0.61 | 1.556 ± 0.1 mPa·s
303.15 K, 101 kPa, x1 = 0.7918 | 1.401 ± 0.014 mPa·s
303.15 K, 101 kPa, x1 = 0.8 | 1.279 ± 0.016 mPa·s
303.15 K, 101 kPa, x1 = 0.8487 | 1.169 ± 0.01 mPa·s
303.15 K, 101 kPa, x2 = 0.00096 | 0.9953 ± 0.0086 mPa·s
303.15 K, 101.33 kPa, x1 = 0.0399 | 1.057 ± 0.0074 mPa·s
303.15 K, 101.33 kPa, x1 = 0.087 | 1.416 ± 0.0099 mPa·s
303.15 K, 101.33 kPa, x1 = 0.089 | 1.343 ± 0.034 mPa·s
303.15 K, 101.33 kPa, x1 = 0.3526 | 1.772 ± 0.012 mPa·s
303.15 K, 101.33 kPa, x1 = 0.388 | 1.834 ± 0.016 mPa·s
303.15 K, 101.33 kPa, x1 = 0.9798 | 0.9905 ± 0.0083 mPa·s
303.16 K, 101.33 kPa, x1 = 0.0332 | 1.063 ± 0.0002 mPa·s
303.16 K, 101.33 kPa, x1 = 0.171 | 1.907 ± 0.0002 mPa·s
303.16 K, 101.33 kPa, x1 = 0.3173 | 1.956 ± 0.0002 mPa·s
303.16 K, 101.33 kPa, x1 = 0.7355 | 1.335 ± 0.0002 mPa·s
308.15 K, 100 kPa, x1 = 0.033 | 0.948 ± 0.06 mPa·s
308.15 K, 100 kPa, x1 = 0.235 | 1.796 ± 0.12 mPa·s
308.15 K, 101 kPa, x1 = 0.095 | 1.254 ± 0.014 mPa·s
